# Assay results taken from the supplement of paper PMC7335073.
# Whole data set: some 4,100 sequences, median “relative CpG methylation activity (normalised to average over all NNNCGNNN flanks)” near 0.87, cut for the highest 2% near 2.4. The list shows a part of the results.
# Biological target: DNMT3A catalytic domain (mouse) (UniProt O88508)
# Experiment: relative CpG methylation activity (normalised to average over all NNNCGNNN flanks) (relative (1 = mean)); higher = more methylation of the central CpG
# Conditions: system: in vitro, murine catalytic domain; CpG state: hemimethylated substrate pool; residues: 608-908
# Experimental: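 Deep enzymology: a pool of dsDNA substrates with a central CpG flanked by 10 random nucleotides on each side was methylated by the murine DNMT3A or DNMT3B catalytic domain (0.8 mM SAM, 37 °C, 60 min). Methylation was then read out by hairpin ligation, bisulfite conversion and NGS. Values are the average methylation of each NNNCGNNN context (±3 flanks; the outer flanks are random and averaged over), normalised to the overall mean, so 1 = average activity.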
row,Sequence,relative CpG methylation activity
1,TTTCGATT,0.862
2,CATCGATT,0.297
3,AGACGGTT,0.458
4,GTTCGTAG,0.538
5,TTTCGATA,1.06
6,TACCGGCA,0.625
7,CACCGGTC,1.07
8,TCTCGTTA,1.25
9,ATACGAGT,1.56
10,ACACGCAA,1.53
11,AGACGTAT,0.427
12,ACCCGTAC,0.962
13,AGGCGGGC,0.431
14,GATCGTCT,0.727
15,CCCCGTCA,1.79
16,CTACGAAA,2.07
17,CCGCGGAA,0.965
18,CACCGTGC,0.391
19,CCACGTTA,1.24
20,ATCCGTGC,0.749
21,CGGCGGAA,0.813
22,CCACGAGA,0.981

row,Sequence,relative CpG methylation activity
1,ATACGACT,1.67
2,AGGCGCCG,1.52
3,TTGCGTGC,0.811
4,CATCGACG,0.36
5,GCTCGATA,0.724
6,TAACGAAT,0.438
7,GTCCGGGT,1.36
8,CGACGTCC,1.22
9,GCTCGAGA,0.685
10,GACCGAAA,1.26
11,CCGCGGGA,0.714
12,TTTCGCGA,0.905
13,AGGCGGTG,0.455
14,GTTCGCGG,0.25
15,ACACGGCC,1.64
16,ACTCGAAT,0.8
17,GTGCGACG,1.11
18,AGTCGTTC,0.333
19,CACCGTAA,1.01
20,CAACGCGT,0.588
21,ATCCGTAG,0.856
22,CCTCGACA,1.18

row,Sequence,relative CpG methylation activity
1,CGACGACC,0.792
2,TAACGATG,0.405
3,AGCCGGAA,0.699
4,GCCCGGCC,0.951
5,ATCCGAGT,1.82
6,TGTCGTCA,1.08
7,CCGCGTAT,0.434
8,TAGCGATC,0.803
9,TCACGACA,1.52
10,TTACGAAA,2.02
11,TATCGAGT,0.591
12,CGACGTGA,0.326
13,CATCGCGA,0.837
14,GATCGGGA,0.388
15,CTGCGTTT,1.38
16,GGGCGTCG,0.833
17,TTTCGGTT,0.461
18,GGACGTAT,0.21
19,ACGCGGAT,0.705
20,CGTCGGGA,0.538
21,CGTCGCGT,0.727
22,TGCCGTTC,1.05

row,Sequence,relative CpG methylation activity
1,CACCGCTA,0.836
2,TCACGTAA,1.62
3,AACCGGTG,0.625
4,AGACGAGG,0.444
5,GCACGATG,0.592
6,AGACGCCG,1.3
7,TAGCGCCA,0.576
8,AGACGTTG,0.379
9,ACCCGTTG,0.669
10,TTTCGGAT,0.634
11,CCCCGTAA,1.55
12,GTCCGGGA,1.28
13,TTCCGTCG,2.09
14,CCCCGTAG,0.788
15,ACCCGGTC,1.19
16,AGCCGCTA,1.03
17,GCGCGAGT,0.631
18,TGACGAGA,0.743
19,GCACGGCA,1.26
20,TCACGAGC,1.97
21,TATCGACG,0.444
22,GCTCGCAC,1.53

row,Sequence,relative CpG methylation activity
1,AGACGACG,0.755
2,AATCGTGG,0.0455
3,GGTCGGGC,0.678
4,CTCCGAAG,1.01
5,GAACGACG,0.645
6,CATCGGTC,1.11
7,CGCCGTCG,0.955
8,TCGCGCTA,1.32
9,TCCCGATC,1.63
10,TATCGAAA,0.519
11,AGGCGGCC,0.941
12,GAGCGCGC,0.65
13,TACCGCCG,1.3
14,AAACGTAT,0.468
15,TTCCGCCG,2.55
16,TATCGCTG,1.22
17,ATACGGGC,1.93
18,GATCGACA,0.553
19,ATTCGTAC,1.14
20,GTACGCCG,1.9
21,ATTCGCTC,1.94
22,CTGCGACG,1.45
